Holding throughout (experiment): Primary Screen for Target Class Profiling of Small Molecule Inhibitors of Methyltransferases
Assay [1] deals with Glycine N-methyltransferase (Homo sapiens) (UniProt Q14749). The following applies: purified enzyme, MTase-Glo SAH luminescence; measured here: GNMT inhibition; at 40 µM; stronger effect = lower value. Summed up:
(§1)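 Each enzyme was reacted with SAM and its substrate, with compounds tested once at 40 uM; SAH formed was read by MTase-Glo luminescence.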

For assay [2], the target named is Guanidinoacetate N-methyltransferase (Homo sapiens) (UniProt Q14353). The note with it: purified enzyme, MTase-Glo SAH luminescence; measured here: GAMT inhibition; at 40 µM; stronger effect = lower value. The gist of the method:
as §1

Assay [3] deals with Histamine N-methyltransferase (Homo sapiens) (UniProt P50135). The following applies: purified enzyme, MTase-Glo SAH luminescence; measured here: HNMT inhibition; at 40 µM; stronger effect = lower value. Summed up: as §1
Assay [4] addresses Nicotinamide N-methyltransferase (Homo sapiens) (UniProt P40261). The following applies: purified enzyme, MTase-Glo SAH luminescence; measured here: NNMT inhibition; at 40 µM; stronger effect = lower value. Summed up: as §1
Assay [5] deals with Phenylethanolamine N-methyltransferase (Homo sapiens) (UniProt P11086). The note with it: purified enzyme, MTase-Glo SAH luminescence; measured here: PNMT inhibition; at 40 µM; stronger effect = lower value. The gist of the method: as §1

Several values for one entry are separate records, joined by “and”; a condition that tells them apart may be missing. Equal values may be shown once. The list shows a part of the results. These are further read-outs of the screen, such as a control signal, another cell line or another target. No call is given for them.
On the % scale 0 is the no-effect control and ±100 the full control effect.

For `CN(C)C(=O)[C@]12CCCC[C@@H]1N(CCc1ccccc1)C(=O)CC2`, the activity change, negative = inhibition was -1.49% in assay [1]; -3.2% in assay [2]; -1.35% in assay [3]; -4.49% in assay [4]; -2.26% in assay [5].
Taken in the same sequence, the figures for `Cc1ccnn1CCC(=O)N1CCOC(Cc2ccc(F)cc2)C1` (stereo unspecified) were -0.333%, -2.3%, 2.17%, 2.48% and 3.37%.
Consider `Nc1ncnc2c1c(-c1ccc(Oc3ccccc3)cc1)cn2C1CCCC1`, for which the activity change, negative = inhibition in assay [1] was -16.5%; in assay [2], -3.23% and 11%; in assay [3], -12.4%; in assay [4] it was -37.5% and -33.6%; in assay [5], -33.5% and -33.8%.
Take `COc1cccc(N2CCN(C(=O)CCn3ccn4nc5c(c4c3=O)CCCC5)CC2)c1`: the activity change, negative = inhibition is -3.1% in assay [1]; 0.663% in assay [2]; -2.84% in assay [3]; -5.54% in assay [4]; 4.07% in assay [5].
Taken in the same sequence, the figures for `Cc1ccc(CNC(=O)C2(C)Cn3cnc(C(=O)NCc4ccccc4Cl)c3C(=O)N2C2CC2)cc1` (stereo unspecified) were -5.21%, 0%, 3.67%, -8.95% and -1.19%.
Taken in the same sequence, the figures for `CCOC(=O)c1cc2n(n1)CC(C)(C(=O)NC1CCC(C)CC1)N(c1ccc(C)cc1C)C2=O` (stereo unspecified) were 7.48%, 0%, 8.04%, 2.89% and 3.78%.
Taken in the same sequence, the figures for `COc1ccccc1Nc1ncc2c(n1)CN(C(=O)c1ccnn1C)CCN2` were -5.96%, -6.02%, -2.91%, -8.87% and -4.03%.
With `O=C(CCCn1nc(-c2ccccc2)c2ccccc21)N1CCN(c2ccccc2)CC1`, the activity change, negative = inhibition in assay [1] is -1.44%; in assay [2], 5.52%; in assay [3], 3.69%; in assay [4], 3.65%; in assay [5], -0.994%.
Taken in the same sequence, the figures for `COCCCN1C(=O)c2ccc(-c3ccco3)n2CC1(C)C(=O)NC1CCCCC1C` (stereo unspecified) were 3.86%, 0.182%, 3.34%, 5.71% and 2.51%.
Taken in the same sequence, the figures for `O=C(CCl)N1CCC2(CC1)CC(c1cccc(C(F)(F)F)c1)=NO2` were -6.43%, -4.53%, -0.579%, -12.5% and -21%.
Regarding `CCn1nccc1C(=O)N1CC[C@@H]2CN(Cc3ccccc3)[C@@H]2C1`, the activity change, negative = inhibition in assay [1] is -0.446%; in assay [2], -3.76%; in assay [3], -0.438%; in assay [4], -5.14%; in assay [5] it was -8.21%.
Taken in the same sequence, the figures for `CC(C)CNC(=O)c1ccc2c(=O)n(Cc3ccccc3)c3nn(CC(=O)NC(C)(C)C)c(=O)n3c2c1` were 2.93%, 4.43%, 4.66%, 0.972% and 3.27%.
Taken in the same sequence, the figures for `CC(C)(O)C1CC=C(C(=O)OC[C@H]2O[C@@H](Oc3cc(C(=O)O)cc(O)c3O)[C@H](O)[C@@H](O)[C@@H]2O)CC1` (stereo partly specified) were 0%, 5.2%, 2.54%, -9.37% and 4.49%.
Turning to `CC1CCN(C(c2ccc(F)cc2)c2ccc(C(C)C(=O)O)cc2-c2ccc(C(F)(F)F)cc2)CC1` (stereo unspecified), the activity change, negative = inhibition in assay [1] is -11.2%; in assay [2] it was -4.78%; in assay [3], 6.34%; in assay [4], -78.1%; in assay [5], -4.67%.
Turning to `O=C1CCCC2=C1C1(CCCC1)N=C(Nc1nc3ccccc3o1)N2`, the values for the activity change, negative = inhibition in assay [2], in assay [4] and in assay [5] were -6.8%, -19.4% and -7.3%, respectively.
`Cc1ccc(-n2nc(C)c([C@H]3C=C[C@@H](OC(=O)Nc4ccc(C(C)C)cc4)C3)c2C)cc1Cl`: the activity change, negative = inhibition in assay [1] was -4.17%; in assay [2], -7.67%; in assay [3] it was -2.05%; in assay [4], -5.72%; in assay [5] it was -6.71%.
Taken in the same sequence, the figures for `CN(C)S(=O)(=O)N1C[C@@H](Oc2cccnc2)C[C@H]1C(=O)N1CCOCC1` were -6.27%, -3.72%, -0.717%, -5.93% and -5.09%.
Taken in the same sequence, the figures for `Cc1cc(-c2nncc3c(C(C)(C)C)c(OCc4ncnn4C)nn23)no1` were -4.95%, 4.95%, -1.84%, -13.6% and -0.181%.
With `c1ccc(N2CCCC(c3nccn3Cc3ccncc3)C2)nc1` (stereo unspecified), the activity change, negative = inhibition in assay [1] is -3.42%; in assay [2], -2.29%; in assay [3], 1.92%; in assay [4], -7.7%; in assay [5], -4.18%.
Taken in the same sequence, the figures for `O=C(O)c1ccnc(-c2ccnc(NCC(O)c3ccccc3Cl)n2)c1` (stereo unspecified) were -6.74%, -9.27%, -10.2%, -11.7% and -14.7%.
As for `O=C(CSc1nnc2n(CCc3ccccc3)c(=O)c3ccccc3n12)NC1CCCCC1`, the activity change, negative = inhibition is -1.21% in assay [1]; 0% in assay [2]; 4.8% in assay [3]; -11.8% in assay [4]; 0.199% in assay [5].
Taken in the same sequence, the figures for `CC1CCC(NC(=O)C2(C)Cn3c(cc4occc43)C(=O)N2Cc2cccc(Br)c2)CC1` (stereo unspecified) were -0.694%, 0.152%, 5.76%, -8.19% and 2.34%.
Taken in the same sequence, the figures for `CC1=CC(=O)CC(C)(C)[C@@]1(O)/C=C/C(C)O[C@@H]1O[C@H](CO)[C@@H](O)[C@H](O)[C@H]1O` (stereo partly specified) were 3.65%, 10.6%, 12.1%, -2.18% and 8.86%.
Taken in the same sequence, the figures for `Cc1cc(N2CCN(Cc3nnc(C4CC(N)C4)n3C)CC2)cc(C)n1` (stereo unspecified) were -5.34%, -9.9%, -15%, -7.05% and -7.59%.
With `COc1ccccc1-c1nnc2ccc(C(=O)N3CCN(C(C)=O)CC3)cn12`, the activity change, negative = inhibition in assay [1] was -3.17%; in assay [2] it was -5.85%; in assay [3], 0.13%; in assay [4] it was -7.85%; in assay [5] it was -6.43%.
Taken in the same sequence, the figures for `CCCS(=O)(=O)N1CC(Oc2ccccc2-c2noc(C)n2)C1` were -5.61%, -0.6%, -1.44%, -0.086% and -1.47%.
Turning to `C[C@@H]1C[C@@H](O)[C@@]23CO[C@]2(CO)CCC[C@@H]3[C@@]12C[C@@H](c1ccoc1)OC2=O`, the activity change, negative = inhibition in assay [1] is -0.702%; in assay [2], 0.045%; in assay [3], -5.57%; in assay [4], -14.9%; in assay [5], 1.33%.
Taken in the same sequence, the figures for `CCOc1c2c(c(OCC)c3ccccc13)C(=O)N(c1ccc(CC(=O)NS(=O)(=O)c3ccccc3)cc1)C2` were -16.5%, 0.933%, 9.01%, -25.6% and -9.98%.
Taken in the same sequence, the figures for `CCCN1C(=O)c2c(C(=O)N(C)Cc3ccccc3)ncn2CC1(C)C(=O)NCc1ccc(C)cc1` (stereo unspecified) were -1.33%, 0%, 4.09%, 3.34% and 3.25%.
Taken in the same sequence, the figures for `CCC(C)NC(=O)c1ccc2c(=O)n(CCC(C)C)c3nn(Cc4ccccc4F)c(=O)n3c2c1` (stereo unspecified) were -10.1%, 0.223%, -2.87%, -13.5% and -5.46%.
As to `CCCCc1nc(Cl)c(CO)n1Cc1ccc(-c2ccccc2-c2nn[nH]n2)cc1`, the figures for the activity change, negative = inhibition in assay [2], in assay [4] and in assay [5] were -2.38%, -21.9% and 2.09%, respectively.
Turning to `CCc1ccc(N2C(=O)c3cc(-c4ccc(OC)cc4)nn3CC2(C)C(=O)NCc2ccccc2)cc1` (stereo unspecified), the activity change, negative = inhibition in assay [1] is 3.2%; in assay [2], 0%; in assay [3] it was 6.04%; in assay [4], 4.25%; in assay [5], -1.69%.
Taken in the same sequence, the figures for `CC(C)Cn1c(=O)c2ccccc2n2c(-c3ccc(Br)cc3)nnc12` were 0.282%, 0%, 2.45%, 0.73% and -4.23%.
Turning to `Cc1ccc(C(C(=O)NCc2c(C)n[nH]c2C)N(C)C)cc1` (stereo unspecified), the activity change, negative = inhibition was -5.16% in assay [1]; -2.61% in assay [2]; -1.92% in assay [3]; -7.27% in assay [4]; -1.2% in assay [5].
Taken in the same sequence, the figures for `CCOc1ccccc1CN1C(=O)c2nc3ccccc3n2CC1(C)C(=O)NC1CCCC1` (stereo unspecified) were -0.113%, 4.75%, 0.471%, 0.299% and -3.99%.
As to `CN1C2CC(OC(=O)[C@H](CO)c3ccccc3)CC1C1OC12` (stereo partly specified), the activity change, negative = inhibition in assay [1] was 5.93%; in assay [2], 12.7%; in assay [3], 6.24%; in assay [4], -1.45%; in assay [5], 8.7%.
`COC(=O)C1=CO[C@@H](O[C@@H]2O[C@H](CO)[C@@H](O)[C@H](O)[C@H]2O)[C@@H]2[C@@H](C)[C@@H](O)C[C@H]12`: the activity change, negative = inhibition in assay [1] is 2.64%; in assay [2] it was 2.96% and 7.42%; in assay [3] it was 9.09%; in assay [4] it was -7.8% and -6.84%; in assay [5], 0.459% and 7.92%.
As to `O=C(CCc1nnc2n(Cc3ccc(F)cc3)c(=O)c3ccccc3n12)N1CCN(c2cccc(Cl)c2)CC1`, the activity change, negative = inhibition in assay [1] is 1.04%; in assay [2], 0%; in assay [3], 6.1%; in assay [4], 1.17%; in assay [5], -1.53%.
